The labels stand for the following.
B1: Caulobacter ParB omega fusion; a variant is named by its letters at X, in order, B8GW30 (parent)
chain: MESVVVGEPGMSEGRRGLGRGLSALLGEVDAAPAQAPGEQLGGSREAPIEILQRNPDQPRRTFREEDLEDLSNSIREKGVLQPILVRPSPDTAGEYQIVAGERAWRAAQRAGLKTVPIMVRELDDLAVLEIGIIENVQRADLNVLEEALSYKVLMEKFERTQENIAQTIGKSXSHVANXMRLLXLPDEVQSYLVSGELTAXHARAIAAAADPVALAKQIIEGGLSVRETEALARKAPNLSAGKSKGGRPPRVKDTDTQALESDLSSVLGLDVSIDHRGSTGTLTITYATLEQLDDLCNRLTRGI

Whole data set: some 81,000 sequences, median “one-hybrid fitness for binding parS DNA” near -0.17, cut for the highest 2% near 0.51. The list shows a part of the results.

Variants of B1 are the subject of this experiment. Briefly: one-hybrid fitness for binding parS DNA (scaled: cognate 1, non-cognate 0); higher = stronger binding. Conditions: with parS DNA site. The method, boiled down: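 Selection: bacterial one-hybrid in E. coli USO, HIS3 reporter with the site 19 bp from the promoter, 48 hours at 37°C on M9-minus-histidine plus 0.1 mM IPTG and 5 mM 3-AT. Libraries were Caulobacter ParB with four randomised specificity codons, sequenced on Illumina before and after selection. Fitness is the rescaled log change in variant-to-wild-type read ratio, anchored to the cognate and non-cognate sites.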
As for RLEE, the “one-hybrid fitness for binding parS DNA” value is at most 0.2.
Take IAIG: the “one-hybrid fitness for binding parS DNA” value was at most 0.2.
Next, QILT: at most 0.2; HMMG: at most 0.2; VVQC: at most 0.2.
For NRTS, the “one-hybrid fitness for binding parS DNA” value is at most 0.2.
The same measure for APCG: at most 0.2; for GHWE: at most 0.2.
Turning to HLTE, the “one-hybrid fitness for binding parS DNA” value is at most 0.2.
Next, AHRA: at most 0.2.
For the variant RPSA, the “one-hybrid fitness for binding parS DNA” value is at most 0.2.
Take PRNK: the “one-hybrid fitness for binding parS DNA” value is at most 0.2.
In the case of IHVT, the “one-hybrid fitness for binding parS DNA” value was at most 0.2.
With RGHG, the “one-hybrid fitness for binding parS DNA” value came out at 0.65.
In the case of CVSS, the “one-hybrid fitness for binding parS DNA” value was at most 0.2.
Regarding ARAN, the “one-hybrid fitness for binding parS DNA” value was at most 0.2.
With DHLA, the “one-hybrid fitness for binding parS DNA” value was at most 0.2.
As to ARRM, the “one-hybrid fitness for binding parS DNA” value is at most 0.2.
EREG: the “one-hybrid fitness for binding parS DNA” value was at most 0.2.
AIPT: the “one-hybrid fitness for binding parS DNA” value is at most 0.2.
Regarding FHYS, the “one-hybrid fitness for binding parS DNA” value is at most 0.2.
The same measure for RRRP: 0.203; for SQPN: at most 0.2.
Consider FRAS, for which the “one-hybrid fitness for binding parS DNA” value was at most 0.2.
For SPVT, the “one-hybrid fitness for binding parS DNA” value is at most 0.2.
In the case of MHVL, the “one-hybrid fitness for binding parS DNA” value is at most 0.2.
The same measure for QLAE: at most 0.2.
As for PHTG, the “one-hybrid fitness for binding parS DNA” value was at most 0.2.
As to AAHA, the “one-hybrid fitness for binding parS DNA” value was at most 0.2.
Next, GGED: at most 0.2.
The same measure for LREG: at most 0.2; for MTGF: at most 0.2.
As for CGKS, the “one-hybrid fitness for binding parS DNA” value was at most 0.2.
For NGVG, the “one-hybrid fitness for binding parS DNA” value was at most 0.2.
In the case of NHCS, the “one-hybrid fitness for binding parS DNA” value is at most 0.2.
Consider LNKI, for which the “one-hybrid fitness for binding parS DNA” value is at most 0.2.
The same measure for VSMY: at most 0.2.
Take VRYL: the “one-hybrid fitness for binding parS DNA” value is at most 0.2.
With QFPD, the “one-hybrid fitness for binding parS DNA” value is at most 0.2.
Next, GGHC: at most 0.2; VKRL: at most 0.2; NWCG: at most 0.2.
Turning to NANL, the “one-hybrid fitness for binding parS DNA” value is at most 0.2.
As to IVLG, the “one-hybrid fitness for binding parS DNA” value is at most 0.2.
In the case of LNGD, the “one-hybrid fitness for binding parS DNA” value is at most 0.2.
Consider SKRN, for which the “one-hybrid fitness for binding parS DNA” value is at most 0.2.
On to AKEV, for which the “one-hybrid fitness for binding parS DNA” value was at most 0.2.
For TTGF, the “one-hybrid fitness for binding parS DNA” value was at most 0.2.
Next, YTAW: at most 0.2.
With YREL, the “one-hybrid fitness for binding parS DNA” value was at most 0.2.
As to YITL, the “one-hybrid fitness for binding parS DNA” value is at most 0.2.
Regarding IKAS, the “one-hybrid fitness for binding parS DNA” value is at most 0.2.
Take ASDD: the “one-hybrid fitness for binding parS DNA” value was at most 0.2.
Turning to RWYH, the “one-hybrid fitness for binding parS DNA” value was at most 0.2.
Regarding LTAV, the “one-hybrid fitness for binding parS DNA” value is at most 0.2.
Turning to MVMS, the “one-hybrid fitness for binding parS DNA” value was at most 0.2.
VETR: the “one-hybrid fitness for binding parS DNA” value is at most 0.2.
Consider EAEL, for which the “one-hybrid fitness for binding parS DNA” value was at most 0.2.
The same measure for PVLC: at most 0.2; for VAAL: at most 0.2.
The same measure for CWRG: at most 0.2.
In the case of GPYH, the “one-hybrid fitness for binding parS DNA” value stood at 0.233.
For ANYC, the “one-hybrid fitness for binding parS DNA” value is at most 0.2.
Consider QMPR, for which the “one-hybrid fitness for binding parS DNA” value is at most 0.2.
For the variant CTSL, the “one-hybrid fitness for binding parS DNA” value was at most 0.2.
On to KRQP, for which the “one-hybrid fitness for binding parS DNA” value was at most 0.2.
The same measure for TGMV: at most 0.2; for CGNS: at most 0.2; for HTRV: at most 0.2.
On to NNQP, for which the “one-hybrid fitness for binding parS DNA” value is at most 0.2.
As for GCAI, the “one-hybrid fitness for binding parS DNA” value is at most 0.2.
With PELR, the “one-hybrid fitness for binding parS DNA” value was at most 0.2.
As for GMSR, the “one-hybrid fitness for binding parS DNA” value was at most 0.2.
Consider HKDR, for which the “one-hybrid fitness for binding parS DNA” value was at most 0.2.
Consider MCHT, for which the “one-hybrid fitness for binding parS DNA” value was at most 0.2.
Next, SDQY: at most 0.2; VGDN: at most 0.2.
Turning to EPIS, the “one-hybrid fitness for binding parS DNA” value is at most 0.2.
For TTVL, the “one-hybrid fitness for binding parS DNA” value is at most 0.2.
Consider DPAL, for which the “one-hybrid fitness for binding parS DNA” value is at most 0.2.
As to CPDD, the “one-hybrid fitness for binding parS DNA” value is at most 0.2.
Turning to TEDC, the “one-hybrid fitness for binding parS DNA” value is at most 0.2.
The same measure for QMPV: at most 0.2.
Consider DLEG, for which the “one-hybrid fitness for binding parS DNA” value was at most 0.2.
FLRK: the “one-hybrid fitness for binding parS DNA” value was at most 0.2.
Turning to LDWS, the “one-hybrid fitness for binding parS DNA” value was at most 0.2.
The same measure for RTSY: 0.489.
Consider GHKG, for which the “one-hybrid fitness for binding parS DNA” value was at most 0.2.
In the case of PTRL, the “one-hybrid fitness for binding parS DNA” value is at most 0.2.
In the case of RMHA, the “one-hybrid fitness for binding parS DNA” value amounted to 0.603.
Turning to HSAE, the “one-hybrid fitness for binding parS DNA” value is at most 0.2.
The same measure for NQRR: at most 0.2; for NPTI: at most 0.2; for YQCC: at most 0.2.
The same measure for MFQR: at most 0.2; for RSER: at most 0.2; for QYYK: at most 0.2.
With FADR, the “one-hybrid fitness for binding parS DNA” value is at most 0.2.
As for WIGG, the “one-hybrid fitness for binding parS DNA” value is at most 0.2.
Regarding DQKL, the “one-hybrid fitness for binding parS DNA” value was at most 0.2.
For LMMY, the “one-hybrid fitness for binding parS DNA” value was at most 0.2.
For PTNR, the “one-hybrid fitness for binding parS DNA” value is at most 0.2.
Take CKLC: the “one-hybrid fitness for binding parS DNA” value was at most 0.2.
The same measure for VANA: at most 0.2; for RWDL: at most 0.2.
ECIR: the “one-hybrid fitness for binding parS DNA” value was at most 0.2.
Consider ATNI, for which the “one-hybrid fitness for binding parS DNA” value was at most 0.2.
As for VYCR, the “one-hybrid fitness for binding parS DNA” value is at most 0.2.
On to NRGY, for which the “one-hybrid fitness for binding parS DNA” value is at most 0.2.
On to HWLV, for which the “one-hybrid fitness for binding parS DNA” value is at most 0.2.
As to YRHN, the “one-hybrid fitness for binding parS DNA” value was at most 0.2.
In the case of EDSF, the “one-hybrid fitness for binding parS DNA” value is at most 0.2.
On to KAKY, for which the “one-hybrid fitness for binding parS DNA” value is at most 0.2.
As to ACSC, the “one-hybrid fitness for binding parS DNA” value was at most 0.2.
Next, PPFG: at most 0.2.
The same measure for SSGR: at most 0.2.
With TKWF, the “one-hybrid fitness for binding parS DNA” value was at most 0.2.
As for YKLT, the “one-hybrid fitness for binding parS DNA” value was at most 0.2.
For LRAK, the “one-hybrid fitness for binding parS DNA” value was at most 0.2.
The same measure for QKTF: at most 0.2; for IIPV: at most 0.2; for YTIV: at most 0.2.
The same measure for HTMP: at most 0.2; for TRSI: at most 0.2.
Turning to QVSV, the “one-hybrid fitness for binding parS DNA” value is at most 0.2.
For RKSN, the “one-hybrid fitness for binding parS DNA” value turned out to be 0.296.
In the case of VKKT, the “one-hybrid fitness for binding parS DNA” value is at most 0.2.
On to PGMM, for which the “one-hybrid fitness for binding parS DNA” value was at most 0.2.
On to QMYL, for which the “one-hybrid fitness for binding parS DNA” value was at most 0.2.
In the case of QLAR, the “one-hybrid fitness for binding parS DNA” value is at most 0.2.
With KRSY, the “one-hybrid fitness for binding parS DNA” value is at most 0.2.
Turning to EHHR, the “one-hybrid fitness for binding parS DNA” value is at most 0.2.
For QIQA, the “one-hybrid fitness for binding parS DNA” value is at most 0.2.
Consider TRGQ, for which the “one-hybrid fitness for binding parS DNA” value is at most 0.2.
Regarding FDLP, the “one-hybrid fitness for binding parS DNA” value is at most 0.2.
For RWLF, the “one-hybrid fitness for binding parS DNA” value was at most 0.2.
Regarding SESQ, the “one-hybrid fitness for binding parS DNA” value was at most 0.2.
Consider KDVC, for which the “one-hybrid fitness for binding parS DNA” value was at most 0.2.
As to CQCR, the “one-hybrid fitness for binding parS DNA” value was at most 0.2.
The same measure for PPMK: at most 0.2.
Take PLKG: the “one-hybrid fitness for binding parS DNA” value was at most 0.2.
In the case of RQVG, the “one-hybrid fitness for binding parS DNA” value stood at 0.88.
Take TFSG: the “one-hybrid fitness for binding parS DNA” value was at most 0.2.
The same measure for VRRD: at most 0.2; for LGCT: at most 0.2.
Take PTPQ: the “one-hybrid fitness for binding parS DNA” value is at most 0.2.
Next, RCHM: 0.355; AGER: at most 0.2.
Regarding RIGD, the “one-hybrid fitness for binding parS DNA” value was at most 0.2.
Turning to ISEA, the “one-hybrid fitness for binding parS DNA” value is at most 0.2.
For SGMF, the “one-hybrid fitness for binding parS DNA” value was at most 0.2.
The same measure for KRIK: at most 0.2.
On to GENT, for which the “one-hybrid fitness for binding parS DNA” value was at most 0.2.

These data come from a collection of fitness landscapes (doi:10.1016/j.celrep.2020.107928).
